Test results as given in ChEMBL document CHEMBL4888484, “Replenishing the malaria drug discovery pipeline: Screening and hit evaluation of the MMV Hit Generation Library 1 (HGL1) against asexual blood stage Plasmodium falciparum ,using a nano luciferase reporter read-out” (2022).
In all, about 150,000 compounds went through this assay and about 540 (0.36%) showed an effect of 50% or more. The list shows a part of the results.

The compounds below were run on Plasmodium falciparum (assay: Primary screen in NF54 nanoGlo assay, in single point, at 2uM, 72h; a lower Z score goes with more inhibition). Conditions: timepoint 72 hour.
Assay type: functional, Erythrocyte

SMILES | % Inhibition | Z score
COC(=O)C1=C(C(=O)OC)SC(=C2C(=S)C(C)(C)N(C(=O)COc3nc4ccccc4s3)c3cc(C)ccc32)S1 | 3% | -0.39
O=C(COC(=O)CCC1CCCCC1)NCc1ccc2c(c1)OCO2 | 34% | -3.79
O=C(CN1CCN(c2ccnc3ccncc23)CC1)N1CCc2ccccc21 | -1% | 0.09
O=C(O)c1cccc2c1OCCN(CCn1cc(Cl)cn1)C2 | 2% | -0.37
CC1(C)CN(C(=O)CN2CCS(=O)(=O)CC2)[C@H]1C1CC1 | -6% | 0.94
Cn1ccc2cc(CN3CCC4(CC3)NC(=O)C[C@@H]4C(=O)O)ccc21 | -20% | 2.02
CC(O)(CCNC(=O)C1CCS(=O)(=O)C1)c1ccccc1 (configuration not stated) | -6% | 0.57
Cc1ncsc1C(=O)N1CCN(C)CC1 | -5% | 0.73
O=C(CNC(=O)Cc1ccccc1)NCC(=O)NC[C@H]1CCCO1 | -14% | 1.61
CC1(C)COCC(C)(C)N1C(=O)c1ncccc1F | -7% | 1.31
CC(C)C(NCC1CCN(S(C)(=O)=O)C1)c1ccc(F)c(F)c1 (configuration not stated) | -13% | 2.41
C[C@@H](CC(=O)Nc1cc[nH]n1)S(=O)(=O)c1ccc(F)cc1 | 0% | -0.03
O=C(Nc1ncccc1O)c1c[nH]c2cc(Cl)ccc12 | 6% | -1.13
COc1cccc(-c2[nH]c3c(C#N)cnn3c2NC2CCCCCC2)c1 | -4% | 0.82
Cc1ccc(-n2ncc3c(=O)n(CC(=O)N4CCCC4)cnc32)c(C)c1 | -11% | 2.13
CC(C)c1noc(NCCn2ccnc2)n1 | -2% | 0.43
CC(=O)Nc1ccc(C(=O)N(C)[C@@H](C)C(C)(C)C)cc1 | -2% | 0.39
Cc1ccc(S(=O)(=O)Nc2ccc(-c3noc(-c4ccc(C#N)cc4F)n3)cc2)cc1 | 8% | -0.91
CCOc1ncccc1C(=O)NC(C)C1CCCO1 (configuration not stated) | -18% | 2.87
CCC1CN2CCCC2CN1Cc1cc2ccccc2o1 (configuration not stated) | -2% | 0.15
CN(C)C(=O)C1CCN(C(=O)Nc2nnc(CC3CCCCC3)s2)CC1 | -11% | 1.36
CCOC(=O)c1nccn1CC(=O)Nc1ccnn1Cc1cccc(F)c1 | -9% | 1.82

SMILES | % Inhibition | Z score
CC(C)c1n[nH]c(C2CN(C3CCOC3=O)CCO2)n1 (configuration not stated) | -2% | 0.32
CC(C)c1csc(CN2CCC(CCC(=O)NCc3cccc(Cl)c3)CC2)n1 | -15% | 1.35
CC[C@@](C)(CCO)NC(=O)C1CCCCCC1 | -6% | 1.15
Cc1ccnc(NCCNC(=O)CCN2CCCCO2)c1 | -10% | 1.94
COc1ccc(-n2c(-c3sc(Nc4ccc(Cl)cc4)nc3C)nc3ccccc3c2=O)cc1 | -3% | 0.38
CNC(=O)[C@H]1CC[C@H](CNc2nc(C)nc(C)c2C)CC1 | -14% | 1.82
CCc1ccc(-c2nccn2[C@@H](C)c2ccncn2)nc1 | -3% | 0.43
CCc1ncnc(N2CCNC(=O)C2)c1F | -13% | 1.61
COc1ccccc1CC(=O)NC[C@H](C)N1CCCC1 | 0% | 0.06
Cc1cc(-c2ccc(S(=O)(=O)NCc3cccs3)s2)n[nH]1 | 6% | -0.7
CCc1nn(Cc2nc(N)nc(N(C)C)n2)c(=O)c(C#N)c1CC | -5% | 0.61
Cc1ccc2c(c1)O[C@@H](C)CN2Cc1noc(C)n1 | -10% | 1.5
O=C(c1cc(O)ccn1)N1CCC[C@@H]2O[C@H](c3ccccc3)C[C@@H]21 | -16% | 3.39
Cc1c(C#N)c(N)c(C(=O)c2ccccc2)n1CC#N | -32% | 3.72
Cc1nc(OCC(=O)NCCC2=CCCCC2)c2c(-c3ccc(F)cc3)noc2n1 | -3% | 0.48
O=C(CCC(=O)N1Cc2ccccc2Oc2ncccc21)NCc1ccccc1Cl | 2% | -0.26
CC(C)c1nccn1C1CN(C(=O)c2ccccn2)C1 | -5% | 0.67
C#CCN1C(=O)C2(NC(C)C3C(=O)N(c4cccc5ccccc45)C(=O)C32)c2ccccc21 (configuration not stated) | 5% | -0.56
C[C@H](NCCCc1ccc(Br)cc1F)c1cnccn1 | 0% | -0.01
COc1ccnc(NCC2CCC(S(C)(=O)=O)CC2)n1 (configuration not stated) | 7% | -1.21
CCCCC(=O)N(Cc1ccc(-c2ccccc2-c2nnn[nH]2)cc1)[C@H](C(=O)NC1CC1)C(C)C | -13% | 1.63
O=S(=O)(CC1CCCCO1)N1CCC(c2nc(C3CC3)no2)C1 (configuration not stated) | -5% | 0.66

SMILES | % Inhibition | Z score
CC(=O)c1sc(-c2ccc(C)n2C)nc1C | 1% | -0.11
CCCNS(=O)(=O)c1cc(NC(=O)c2cccs2)ccc1Oc1cc(C(=O)O)nn1C | -18% | 2.08
CC(C)c1cc(N2CCCS(=O)(=O)CC2)ncn1 | -7% | 1.09
O=C(NC(Cc1ccncc1)[C@H]1C[C@H](O)C1)c1cccn2cnnc12 (some centres not stated) | -7% | 0.72
COc1ccc(F)c(F)c1CNC(C)(C)CC(C)C | 1% | -0.13
CC(C(=O)NCC1CCCO1)S(=O)(=O)c1ccc(F)c(F)c1 (configuration not stated) | -5% | 0.86
O=S1(=O)CCN(c2ccccc2-c2ncnn2-c2ccccc2)CC1 | -2% | 0.23
O=C(NCc1ccc(F)c(Cl)c1)[C@H]1CC12CCS(=O)(=O)CC2 | -8% | 1.09
COc1c(F)ccc(C(=O)NCCc2nnc(N)s2)c1F | -6% | 0.9
CC(C)[C@H](NS(=O)(=O)N(C)C)c1nccn1C | -8% | 1.23
Cc1cc(COc2ccccc2)oc1C(=O)NCCN1CCCC1=O | 11% | -1.41
CC(C)N1C[C@H](NCc2ccccc2C(F)(F)F)C[C@H]1C(=O)NCCc1ccccc1F | 6% | -0.74
COc1ccc(Cc2nnnn2Cc2nnc(C)o2)cc1F | 1% | -0.15
c1ccc(CC2CCN(Cn3cnc4ccccc43)CC2)cc1 | -6% | 1
OC[C@]1(O)CCCN(Cc2ccccc2C2CC2)C1 | -2% | 0.34
COc1cccc(-c2nc3ccc(-c4ccc(C(C)=O)cc4)cn3c2CN2CCN(C(=O)c3ccc(F)cc3)CC2)c1 | 13% | -2.37
COc1cc(Br)ccc1C(N)=O | -1% | 0.2
CC(C)(C)C(=O)N1CCN(C(=O)CCS(C)(=O)=O)C(C)(C)C1 | 0% | 0.05
Cc1cc(=O)c2c(=O)n(-c3nc4ccccc4s3)[nH]c2[nH]1 | -8% | 1.25
Cc1oncc1C(=O)N[C@@H](C)Cc1ccc2c(c1)CCO2 | 7% | -1.11
CCCn1cc(-c2ccnc(N[C@H]3CC(=O)N(C(C)C)C3)n2)c(C)n1 | -1% | 0.18
COc1ccc(S(=O)(=O)N2CCN([C@@H](C)CCc3ccccc3)CC2)cc1 | 7% | -0.88

SMILES | % Inhibition | Z score
CCn1c(C2CCN(C(=O)c3ccccc3Br)CC2)nn(CCOC)c1=O | 0% | 0.03
CC(C)Cc1noc(C2(c3ccc(Br)cc3)CCOCC2)n1 | -15% | 3.07
CCNC(=O)C(=O)Nc1c(C)cccc1C | -12% | 1.62
O=C(NCCNc1cnccn1)c1ccc(Br)o1 | -15% | 1.48
CN(Cc1ccccc1)C(=O)[C@H]1CCCN(Cc2ccc(Cl)cc2)C1 | 10% | -1.25
COc1ccc(OCC(=O)NC2CCN(c3nc4c(s3)c(C)nn4-c3ccc(F)cc3)CC2)cc1 | -2% | 0.29
CCOCCNC(=O)c1ccc(-c2ncnn2C(C)C)cc1 | -13% | 1.75
COc1ccc(-c2noc(N3CCN(c4ccccc4F)CC3)n2)cc1OC | 8% | -1.29
O=C(O)CCC1CCN(C(=O)c2ccc3c(c2)CCC3)CC1 | 9% | -1.13
O=S(=O)(C1CC1)N1CC(n2cc(-c3ccccc3)nn2)C1 | -19% | 3.18
CN(C)c1cnccc1NC(=O)Nc1cnn(CCF)c1 | 15% | -1.77
Cc1cc(C(=O)N[C@H]2[C@H](O)[C@H](O)C[C@@H]2c2ccc(C(F)(F)F)nc2)nn1C | 20% | -2.3
CC1CC(C)CN(C(=O)NCCOC2CCCCCC2)C1 (configuration not stated) | -4% | 0.52
O=C(NCC1CCOCC1)Nc1cccc2ccsc12 | -5% | 0.58
Cc1sc(NC(=O)c2cccs2)c([C@@H](c2ccc(Cl)cc2)N2CCN(C)CC2)c1C | 17% | -3.26
C[C@H](OC(=O)CN1C(=O)c2ccccc2C1=O)C(=O)N1CCc2ccccc21 | -13% | 1.34
CCCN(C(=O)c1ccc(C)o1)[C@H]1CC(=O)N(C)C1=O | -15% | 1.49
CCOC(=O)[C@H](C(C)C)N1CCC(C(=O)Nc2ccccc2)CC1 | 8% | -0.95
CCC1Oc2ccccc2N(CC(=O)NCCCN2CC(C)CC(C)C2)C1=O (configuration not stated) | -3% | 0.55
COc1ccc(Cl)cc1N1CC[C@H](NC(=O)C2(C#N)CCCC2)C1 | -7% | 1.12
